Laboratory results from PubChem BioAssay AID651820 (National Center for Advancing Translational Sciences (NCATS), 2012).
Several values for one entry are separate records, joined by “and”; a condition that tells them apart may be missing. Equal values may be shown once. The campaign covered roughly 340,000 compounds. About 12,000 (3.5%) were called active. Inconclusive results, whose numbers are uncertain, are shown with a selection of clear calls. Calls follow the shape of the dose curve; as a rule, active = well fitted inhibition curve with a large enough effect; inconclusive = small, poorly fitted or top-dose-only effect, or another doubt; inactive = no such curve, though single readings can be large or run the other way. Potencies of inconclusive entries are doubtful fits and often do not repeat.
% is scaled to controls: 0 for no effect and ±100 for the full control effect; potency is read from the fitted curve at half-maximal effect; tags tell the direction and shape of the fitted curve.

Experiment: qHTS Assay for Inhibitors of Hepatitis C Virus (HCV)
Details: Huh7.5.1 HCVcc-Cre (HCVcc is cell-culture hepatitis C virus) infection, luciferase reporter, 44 h; activity change, negative = inhibition: at 41.8 µM (top of the series)
Procedure, shortened: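 HCVcc-Cre virus at an moi near 0.5 was added right after compound to cells cultured 4 h from seeding (1,000 cells/well). Luciferase activity was determined 44 h later, 15 min after substrate addition at RT.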
In the case of `CCC(C)NS(=O)(=O)c1ccc(OCC(=O)Nc2ccc3c(c2)OCO3)cc1` (centres undefined), the Potency is reported as inconclusive: 14.1 µM [inhibitor, partial curve]. For `Cc1cccc(-c2nnc3n2N=C(c2ccccc2)CS3)c1`, the Potency was inconclusive: 22.4 µM [inhibitor, single point]. For `CCOc1ccc2nc(N3CCC(C(=O)N4CCN(C5CCCCC5)CC4)CC3)sc2c1`, the Potency was inconclusive: 25.1 µM [inhibitor, single point] and inconclusive: 501 nM [inhibitor, full curve, poor fit]. For `COc1cccc(COC(=O)C2CCN(S(=O)(=O)c3cccs3)CC2)c1OC`, the Potency was “inactive”. In the case of `Cc1ccc(S(=O)(=O)N2CC3CCCC2C3)cc1` (centres undefined), the Potency is reported as “inactive”. In the case of `COc1ccc([C@H]2CC(=O)C=C(c3ccc4ncccc4c3)C2)cc1`, the Potency is reported as inconclusive: 31.6 µM [inhibitor, single point]. For `COC(=O)[C@]1(Cc2ccccc2)N[C@H](CN(C)C(=O)c2ccc(F)cc2)[C@@H]2C(=O)N(C)C(=O)[C@@H]21`, the Potency was inconclusive: 5.62 µM [inhibitor, single point]. With `COC(=O)C1(Cc2cc(-c3cccnc3)no2)CCN(C(=O)OC(C)(C)C)CC1` the Potency was “inactive”. For `O=C(CN1CCCCC1)Nc1ccc(S(=O)(=O)N2CCCCCC2)cc1`, the Potency was inconclusive: 14.1 µM [inhibitor, single point]. In the case of `COc1cc(OC)c(OC)cc1/C=N/Nc1ncnc2c1[nH]c1ccccc12`, the Potency is reported as active: 10 µM. For `CCOc1ccc(-c2nnc3ccc(SC(C)C)nn23)cc1`, the Potency was inconclusive: 2 µM [inhibitor, full curve, poor fit]. With `CSC(=Nc1ccccc1)N=C(SCc1ccccc1)N(C)C` the Potency was inconclusive: 1.41 µM [inhibitor, full curve]. In the case of `COc1ccccc1C(=O)Nc1ccc(NC(=O)c2ccco2)c(C)c1`, the Potency is reported as inconclusive: 14.1 µM [inhibitor, single point]. In the case of `Cc1nc(NC(=O)/C=C/c2ccccc2)n[nH]1`, the Potency is reported as inconclusive: 31.6 µM [inhibitor, single point]. With `CCOc1ncccc1C(=O)Nc1cccc(S(=O)(=O)N2CCCCC2)c1` the Potency was inconclusive: 31.6 µM [inhibitor, single point]. In the case of `CCOC(=O)c1sc(NC(=O)CSc2ncn[nH]2)c(C#N)c1C`, the Potency is reported as inconclusive: 10 µM [inhibitor, partial curve]. In the case of `CC(=CC(=O)c1ccccc1)c1ccccc1`, the Potency is reported as “inactive”. In the case of `CC(=O)Nc1ccc(S(=O)(=O)N/N=C/c2ccc(C)o2)cc1`, the Potency is reported as “inactive”. For `CCC(C)Sc1cccc(-c2nc3cc(C)ccn3c2NCc2ccccc2)c1` (centres undefined), the Potency was inconclusive: 31.6 µM [inhibitor, single point]. For `COc1ccc(-c2nc(CN3CCCCC3c3cccnc3)c(C)o2)c(F)c1` (centres undefined), the Potency was inconclusive: 20 µM [inhibitor, single point]. For `Cc1ccc2sc(N(CCCN(C)C)C(=O)c3nc4ccccc4s3)nc2c1C`, the Potency was inconclusive: 11.2 µM [inhibitor, single point]. With `Cc1ccc(S(=O)(=O)N2CCC(C(=O)NCCCN3CCCC3=O)CC2)cc1` the Potency was “inactive”. In the case of `Cc1nc(NC(=S)Nc2ccccc2)sc1C`, the Potency is reported as inconclusive: 22.4 µM [inhibitor, single point]. For `CCOC(=O)C1=C(C)NC(=S)N(C(C)=O)C1c1ccccc1` (centres undefined), the Potency was inconclusive: 31.6 µM [inhibitor, single point]. For `CC(=O)Nc1cccc(OCCCNC(=O)c2cccc3ccccc23)c1`, the Potency was “inactive”. For `Cc1cc(=O)oc2cc(OCc3ccc(S(=O)(=O)N4CCOCC4)cc3)ccc12`, the Potency was inconclusive: 22.4 µM [inhibitor, single point]. For `CNc1c([N+](=O)[O-])cnn1-c1ccccc1F`, the Potency was “inactive”. In the case of `COc1cc(-c2nc(CN3CCN(CC(C)C)C(=O)[C@@H]3C)c(C)o2)ccc1F`, the Potency is reported as inconclusive: 31.6 µM [inhibitor, single point]. For `CC(=O)Nc1cccc(C(=O)N2CCN(S(=O)(=O)c3ccc(C4CCCCC4)cc3)CC2)c1`, the Potency was inconclusive: 31.6 µM [inhibitor, single point]. For `N#Cc1c(NC(=O)c2cccnc2)sc2c1CCC2`, the Potency was inconclusive: 2.82 µM [inhibitor, full curve]. With `Cc1cc(-c2ccc(C)c(S(=O)(=O)NCCCN3CCN(c4ccccc4)CC3)c2)on1` the Potency was inconclusive: 10 µM [inhibitor, partial curve]. For `Cc1cccc(NC(=S)NCc2ccc3c(c2)cc(C)n3C)c1C`, the Potency was inconclusive: 11.2 µM [inhibitor, partial curve]. With `COc1ccc2c(CC(=O)Nc3ncc(C)s3)coc2c1` the Potency was inconclusive: 10 µM [inhibitor, partial curve]. In the case of `CCC(Oc1ccc2c(=O)c(-c3ccccc3OC)coc2c1)C(=O)OCc1ccccc1` (centres undefined), the Potency is reported as inconclusive: 35.5 µM [inhibitor, partial curve]. With `Cc1cc(N)n2ncc(-c3ccc(F)cc3)c2n1` the Potency was active: 10 µM. For `O=C1CCCc2c1cc(-c1ccccc1)n2-c1ccccc1`, the Potency was inconclusive: 7.94 µM [inhibitor, partial curve]. With `CCCCN(Cc1ccco1)C(=O)C1CCCN(c2ncnc3c2nc2n3CCCCC2)C1` (centres undefined) the Potency was inconclusive: 31.6 µM [inhibitor, single point]. For `COc1cccc(/C=N/Nc2nnc(C)n2N)c1OCc1ccccc1Cl`, the Potency was active: 22.4 µM. In the case of `Cc1cc(C)c(S(=O)(=O)Nc2cccc(S(=O)(=O)NC3=NCCC3)c2)c(C)c1`, the Potency is reported as “inactive”. With `CCN(C(=O)C(C)N1C(=O)/C(=C/c2ccco2)SC1=S)C1CCS(=O)(=O)C1` (centres undefined) the Potency was active: 14.1 µM. In the case of `O=C(O)CSc1nc2ccc(Cl)cc2[nH]1`, the Potency is reported as inconclusive: 10 µM [inhibitor, partial curve]. For `CN(C)c1ccc(C(=S)N2CCN(C(=S)Nc3cccc4ccccc34)CC2)cc1`, the Potency was inconclusive: 31.6 µM [inhibitor, single point]. With `CCCOC1CCCN(C(=O)c2ccc(OC3CCN(Cc4ccccn4)CC3)cc2)C1` (centres undefined) the Potency was inconclusive: 22.4 µM [inhibitor, single point]. In the case of `COC(=O)c1sc2nc(SCc3ccccc3C#N)n(N)c(=O)c2c1C`, the Potency is reported as inconclusive: 1.41 µM [inhibitor, full curve, poor fit]. In the case of `C/C(=N\Nc1nc(C)cc(-c2ccccc2)n1)c1ccc(F)cc1`, the Potency is reported as inconclusive: 35.5 µM [inhibitor, partial curve, poor fit]. For `CCn1nnc(-c2ccccc2NC(=O)c2cnccn2)n1`, the Potency was active: 11.2 µM. For `COc1ccc(-c2sc3cc(OC)ccc3c2-c2ccc(OCCN3CCOCC3)cc2)cc1`, the Potency was inconclusive: 10 µM [inhibitor, partial curve]. For `COc1cc(NC(=O)C2CC(c3cccc(OC)c3OC)=NO2)cc(OC)c1OC` (centres undefined), the Potency was active: 1.12 µM. For `Nc1cc(-c2ccc(Br)cc2)nn1S(=O)(=O)c1cccc2nsnc12`, the Potency was active: 11.2 µM. For `CCn1nc(C(C)C)cc1C(=O)N1CCCC(CO)(Cc2ccc(F)cc2F)C1` (centres undefined), the Potency was inconclusive: 14.1 µM [inhibitor, single point]. With `COc1ccc(CNC(=S)N/N=C(\C)c2ccc(OC)cc2)cc1` the Potency was inconclusive: 31.6 µM [inhibitor, single point]. For `CCc1ccc(S(=O)(=O)Nc2cccc(-c3ccc4nncn4n3)c2)s1`, the Potency was inconclusive: 22.4 µM [inhibitor, single point]. With `CCOc1cccc(=O)c2c(C)n(CC(=O)c3ccccc3)c(C)c12` the Potency was inconclusive: 28.2 µM [inhibitor, single point]. In the case of `COc1ccc(N(C(=O)c2snc(C(N)=O)c2N)C(C(=O)NC2CCCC2)c2cccs2)cc1OC` (centres undefined), the Potency is reported as inconclusive: 2 µM [inhibitor, full curve, poor fit]. In the case of `CON(C)c1nc(C2CCCCC2)c2cc(C)ccc2n1`, the Potency is reported as “inactive”. In the case of `O=C(/C=C/c1ccco1)NC1=NCCS1`, the Potency is reported as “inactive”. For `COc1cccc(Oc2coc3cc(OC(=O)N4CCOCC4)ccc3c2=O)c1`, the Potency was inconclusive: 20 µM [inhibitor, single point]. With `c1ccc(C2[C@H]3CN(Cc4cccnc4)[C@H](c4ccccc4)C34CC2(c2ccccc2)C4)cc1` (some centres undefined) the Potency was “inactive”. In the case of `CCc1c(-c2ccccc2)nc2nc(C)c(C)nn12`, the Potency is reported as “inactive”. With `COc1ccc(Cn2nnc3ccccc32)cc1` the Potency was inconclusive: 35.5 µM [inhibitor, partial curve, poor fit]. In the case of `O=S(=O)(Nc1ccc(O)c2ccccc12)c1cccs1`, the Potency is reported as inconclusive: 31.6 µM [inhibitor, single point]. For `CCCCCCC(=O)Cc1cc(OC)c(OC)cc1C=C(C(=O)OCC)C(=O)OCC`, the activity change, negative = inhibition was inactive: -5.34% [at 8.37 µM]. With `CC(C)(C)C(C(Oc1ccc(Cl)cc1)n1cncn1)n1nnnc1C(c1cccc(Cl)c1)N1CCCCC1` (centres undefined) the Potency was inconclusive: 22.4 µM [inhibitor, single point]. With `COc1ccccc1N1CCN(CC(O)c2ccccc2)CC1` (centres undefined) the Potency was “inactive”. In the case of `O=C(C1CC1)N1CCc2cc(Br)cc(S(=O)(=O)NCc3ccc4c(c3)OCO4)c21`, the Potency is reported as inconclusive: 4.47 µM [inhibitor, full curve, poor fit]. For `O=C(/C=C/c1ccc([N+](=O)[O-])s1)N1CCN(c2ccccc2)CC1`, the Potency was inconclusive: 31.6 µM [inhibitor, single point]. With `COc1ccc(Nc2nnc(-c3ccncc3)s2)cc1Cl` the Potency was “inactive”. In the case of `COc1ccc(S(=O)(=O)N2CCOC2CNC(=O)C(=O)NCc2ccc(F)cc2)cc1` (centres undefined), the Potency is reported as inconclusive: 31.6 µM [inhibitor, single point]. In the case of `Cc1ccc2c(NC(=S)NC(=O)c3ccccc3)cccc2n1`, the Potency is reported as inconclusive: 31.6 µM [inhibitor, single point].
